# Assay results reported in PubChem BioAssay (Tox21).
# Not every entry of the source has a single result; some have several. This is not the full list of results. An entry can have further records. Values given together repeat one measurement in other runs, samples, wells, individuals or studies. Records with an inconclusive call do not appear. Unless noted, calls come from the whole dose curve; as a rule, active = well fitted curve in the direction sought with a large enough effect in the repeat runs; inconclusive = weak or mixed curves; inactive = no such curve, though single readings can be large; an effect the other way counts as inactive or inconclusive. A structure can be active in one record and inactive in another. Brackets with × count equal records among those shown.
# Key:
# [1] = qHTS assay for small molecule disruptors of the mitochondrial membrane potential (AID 720635); details: HepG2 mitochondrial membrane potential, Mito-MPS dye ratio; note: potency is the fitted concentration of half-maximal effect
# Procedure, shortened: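 Mitochondrial membrane potential tracked with Mito-MPS dye, red aggregates (ex 540/em 590 nm) against green monomers (ex 490/em 535 nm). Compound treatment 1 hr at 37C, dye 30 min in HepG2.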
# [2] = qHTS assay to identify small molecule antagonists of the thyroid receptor (TR) signaling pathway (AID 743065); details: GH3.TRE-Luc, T3-stimulated luciferase inhibition, 23.5 h; series mostly up to 70.3 µM; note: nearly all actives have a fitted effect of over 55% in size; note: potency is the fitted concentration of half-maximal effect
# Procedure, shortened: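 Antagonism measured as loss of luciferase signal in GH3 cells stably carrying a TRE-luciferase reporter, co-treated with compound and T3 (1 nM final) for 23.5 h at 37 C. Viability was read in the same well by CellTiter-Fluor.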
# [3] = molecular target: Thyrotropin receptor (Homo sapiens) (UniProt P16473); assay: qHTS assay to identify small molecule agonists of the thyroid stimulating hormone receptor (TSHR) signaling pathway (AID 1224843; calls by dose curve; note: nearly all actives have a fitted effect of over 45% in size; note: potency is the fitted concentration of half-maximal effect; for activation: % is set by controls: 0 for no effect and ±100 for the full control effect); details: TSHR-HEK293 cells, cAMP HTRF, agonist mode, 30 min; series mostly up to 92.4 µM
# [4] = qHTS assay to identify small molecule agonists of H2AX - cell viability counter screen (AID 1224847; calls by dose curve; note: nearly all actives have a fitted effect of over 30% in size; note: potency is the fitted concentration of half-maximal effect); details: CHO-K1 viability, CellTiter-Glo luminescence, 3 h; series mostly up to 154 µM
# Procedure, shortened: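 After overnight plating of 1000 CHO-K1 cells per well, a 15-concentration compound series was applied for 3 hr at 37C. Luminescence from CellTiter-Glo, read following 30 min at room temperature, reflected cell viability.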
# [5] = qHTS assay to identify small molecule agonists of the estrogen related receptor (ERR) signaling pathway from Tox21 library (AID 1224849; calls by dose curve; note: % is set by controls: 0 for no effect and ±100 for the full control effect; nearly all actives have a fitted effect of over 15% in size); details: ERR reporter cell line, ONE-Glo luciferase, 18 h; at 92.4 µM (top of the series)
# Procedure, shortened: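 Agonist signal is luciferase luminescence from an ERR reporter cell line treated 18 h at 37 C with DMSO-dissolved compounds, read 30 min after ONE-Glo addition at room temperature.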
# [6] = A CellTox Green Cytotoxicity Assay to monitor cytotoxicity in HEK293 cells - 40 hour (AID 1224871); details: CellTox Green fluorescence; series mostly up to 76.8 µM; note: nearly all actives have a fitted effect of over 45% in size; note: potency is the fitted concentration of half-maximal effect
# Procedure, shortened: (§1)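 Cytotoxicity was tracked continuously in HEK293 cells by a DNA-binding dye excluded from viable cells. Compounds were transferred in DMSO 5 h after seeding; fluorescence was recorded at intervals up to 40 h.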
# [7] = qHTS RealTime-Glo MT Cell Viability Assay in HEK293 cells - 40 hour (AID 1224874); details: RealTime-Glo luminescence, stronger effect = lower value; note: % is set by controls: 0 for no effect and ±100 for the full control effect; nearly all actives have a fitted effect of over 50% in size
# Procedure, shortened: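 Nonlytic bioluminescent viability monitoring. HEK293 at 600 cells/well with reagent; 5 h settle; compound transfer by pintool; plates held at 37 C and read at set time points.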
# [8] = A CellTox Green Cytotoxicity Assay to monitor cytotoxicity in HEK293 cells - 24 hour (AID 1224875); details: CellTox Green fluorescence; series mostly up to 76.8 µM; note: nearly all actives have a fitted effect of over 45% in size; note: potency is the fitted concentration of half-maximal effect; for activity change: % is set by controls: 0 for no effect and ±100 for the full control effect
# Procedure, shortened: as §1
# [9] = A CellTox Green Cytotoxicity Assay to monitor cytotoxicity in HEK293 cells - 32 hour (AID 1224881); details: CellTox Green fluorescence; series mostly up to 76.8 µM; note: nearly all actives have a fitted effect of over 40% in size; note: potency is the fitted concentration of half-maximal effect
# Procedure, shortened: as §1
# [10] = A CellTox Green Cytotoxicity Assay to monitor cytotoxicity in HEK293 cells - 16 hour (AID 1224888); details: CellTox Green fluorescence; series mostly up to 76.8 µM; note: nearly all actives have a fitted effect of over 35% in size; note: potency is the fitted concentration of half-maximal effect; for activity change: % is set by controls: 0 for no effect and ±100 for the full control effect
# Procedure, shortened: as §1
# [11] = molecular target: Estrogen receptor beta (Homo sapiens) (UniProt Q92731); assay: qHTS assay to identify small molecule agonists of the estrogen receptor beta (ER-beta) signaling pathway (AID 1259377; active = well fitted activation curve with a large enough effect in the signal ratio in the repeat runs, not every such curve was filed as active; the % refers to the signal ratio; note: potency is the fitted concentration of half-maximal effect; for activation: % is set by controls: 0 for no effect and ±100 for the full control effect); details: ER-beta-UAS-bla HEK293T, beta-lactamase FRET ratio, 16 h; series mostly up to 92.4 µM
# [12] = molecular target: Nuclear receptor subfamily 1 group I member 2 (Homo sapiens) (UniProt O75469); assay: Human pregnane X receptor (PXR) small molecule agonists, qHTS assay (AID 1346982); details: PXR-Luc HepG2, CYP3A4 luciferase reporter, 24 h; series mostly up to 92.4 µM; note: nearly all actives have a fitted effect of over 35% in size; note: potency is the fitted concentration of half-maximal effect
# Procedure, shortened: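 Agonist mode qHTS: PXR-Luc HepG2 cells plated 5 hr before DMSO-dissolved compounds were pinned in, cultured 24 hr at 37 C, 5% CO2; ONE-Glo luminescence readout.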
# [13] = molecular target: Cytochrome P450 2C19 (Homo sapiens) (UniProt P33261); assay: Cytochrome P450 Family 2 Subfamily C Member 19 (CYP2C19) small molecule antagonists: luciferase reporter qHTS assay (AID 1671197); details: P450-Glo CYP2C19 enzyme, luciferin luminescence, 1 h; series mostly up to 115 µM; note: nearly all actives have a fitted effect of over 65% in size; note: potency is the fitted concentration of half-maximal effect
# Procedure, shortened: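 CYP2C19 P450-Glo, 1536-well qHTS. Cpd + enzyme/proluciferin substrate 10 min RT; + NADPH regen, 37C 1 h; stop with luciferin detection reagent, 20 min RT, luminescence (RLU). Pos ctrl ketoconazole.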
# [14] = molecular target: Cytochrome P450 1A2 (Homo sapiens) (UniProt P05177); assay: Cytochrome P450 Family 1 Subfamily A Member 2 (CYP1A2) small molecule antagonists: luciferase reporter qHTS assay (AID 1671199); details: P450-Glo CYP1A2 enzyme, luciferin luminescence, 1 h; series mostly up to 115 µM; note: nearly all actives have a fitted effect of over 50% in size; note: potency is the fitted concentration of half-maximal effect
# Procedure, shortened: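 Inhibition of CYP1A2 conversion of proluciferin to luciferin, detected by luminescence. Reaction run 1 h at room temperature with NADPH regeneration after brief compound preincubation.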
# UniProt Q92731, sequence (Q92731 whole entry, looked up): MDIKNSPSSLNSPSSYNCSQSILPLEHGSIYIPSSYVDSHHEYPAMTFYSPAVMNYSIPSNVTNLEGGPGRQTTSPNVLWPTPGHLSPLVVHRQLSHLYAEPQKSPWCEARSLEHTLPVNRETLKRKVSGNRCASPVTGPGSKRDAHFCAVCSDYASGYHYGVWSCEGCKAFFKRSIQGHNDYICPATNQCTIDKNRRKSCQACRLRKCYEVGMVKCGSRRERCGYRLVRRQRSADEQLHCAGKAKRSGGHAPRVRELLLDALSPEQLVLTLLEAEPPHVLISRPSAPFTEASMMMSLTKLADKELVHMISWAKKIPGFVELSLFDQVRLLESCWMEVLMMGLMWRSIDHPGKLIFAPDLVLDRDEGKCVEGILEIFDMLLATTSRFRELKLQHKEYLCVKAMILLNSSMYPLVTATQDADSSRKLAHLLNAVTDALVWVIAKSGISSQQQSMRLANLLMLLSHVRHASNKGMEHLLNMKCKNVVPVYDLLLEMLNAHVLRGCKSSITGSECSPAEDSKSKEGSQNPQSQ
# UniProt P16473, sequence (P16473 whole entry, looked up): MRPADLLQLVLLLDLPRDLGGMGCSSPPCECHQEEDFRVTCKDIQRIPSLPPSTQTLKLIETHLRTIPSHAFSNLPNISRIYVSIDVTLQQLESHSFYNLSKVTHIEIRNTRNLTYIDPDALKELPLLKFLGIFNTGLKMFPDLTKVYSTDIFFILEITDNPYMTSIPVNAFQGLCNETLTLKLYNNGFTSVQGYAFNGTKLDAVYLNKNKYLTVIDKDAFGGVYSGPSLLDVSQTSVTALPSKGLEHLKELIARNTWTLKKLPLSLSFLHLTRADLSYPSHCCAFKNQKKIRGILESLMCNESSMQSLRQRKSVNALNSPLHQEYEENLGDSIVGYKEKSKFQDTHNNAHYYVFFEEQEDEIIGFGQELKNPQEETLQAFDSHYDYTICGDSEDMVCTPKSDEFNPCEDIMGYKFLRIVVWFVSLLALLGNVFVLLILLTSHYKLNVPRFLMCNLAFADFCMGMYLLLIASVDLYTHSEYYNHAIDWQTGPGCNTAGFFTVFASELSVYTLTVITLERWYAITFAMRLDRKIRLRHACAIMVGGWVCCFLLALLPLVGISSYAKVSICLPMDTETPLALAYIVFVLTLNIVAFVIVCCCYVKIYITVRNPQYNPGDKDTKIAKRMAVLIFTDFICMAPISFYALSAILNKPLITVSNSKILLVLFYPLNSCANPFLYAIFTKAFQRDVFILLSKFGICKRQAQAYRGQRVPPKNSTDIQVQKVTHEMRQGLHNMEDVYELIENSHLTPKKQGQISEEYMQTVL
# UniProt P05177, sequence (P05177 whole entry, looked up): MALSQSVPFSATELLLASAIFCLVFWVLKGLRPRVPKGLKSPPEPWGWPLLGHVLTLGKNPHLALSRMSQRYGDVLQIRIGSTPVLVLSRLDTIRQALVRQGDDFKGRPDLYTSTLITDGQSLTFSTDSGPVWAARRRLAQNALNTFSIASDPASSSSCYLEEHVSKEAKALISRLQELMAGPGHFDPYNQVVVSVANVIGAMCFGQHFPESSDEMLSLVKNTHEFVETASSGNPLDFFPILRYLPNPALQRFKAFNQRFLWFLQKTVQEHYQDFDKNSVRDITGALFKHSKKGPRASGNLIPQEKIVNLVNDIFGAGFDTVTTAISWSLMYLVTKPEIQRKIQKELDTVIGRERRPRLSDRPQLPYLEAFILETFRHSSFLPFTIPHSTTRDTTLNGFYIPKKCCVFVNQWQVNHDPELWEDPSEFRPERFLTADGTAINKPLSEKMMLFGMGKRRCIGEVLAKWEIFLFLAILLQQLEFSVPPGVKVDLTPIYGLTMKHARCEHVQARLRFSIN
# UniProt P33261, sequence (P33261 whole entry, looked up): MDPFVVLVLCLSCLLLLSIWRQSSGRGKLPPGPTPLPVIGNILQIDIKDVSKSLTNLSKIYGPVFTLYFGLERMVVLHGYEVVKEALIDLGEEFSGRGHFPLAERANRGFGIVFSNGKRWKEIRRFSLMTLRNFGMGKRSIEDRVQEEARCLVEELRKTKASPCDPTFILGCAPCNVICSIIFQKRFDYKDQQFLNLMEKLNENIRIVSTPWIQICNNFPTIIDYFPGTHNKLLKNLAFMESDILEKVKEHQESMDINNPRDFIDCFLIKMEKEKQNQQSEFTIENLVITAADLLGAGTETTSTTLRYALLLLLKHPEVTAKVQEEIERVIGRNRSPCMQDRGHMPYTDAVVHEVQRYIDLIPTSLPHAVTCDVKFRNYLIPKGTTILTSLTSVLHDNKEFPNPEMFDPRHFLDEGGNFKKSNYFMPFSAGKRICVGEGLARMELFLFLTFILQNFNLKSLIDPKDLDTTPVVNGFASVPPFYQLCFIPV
# UniProt O75469, sequence (O75469 whole entry, looked up): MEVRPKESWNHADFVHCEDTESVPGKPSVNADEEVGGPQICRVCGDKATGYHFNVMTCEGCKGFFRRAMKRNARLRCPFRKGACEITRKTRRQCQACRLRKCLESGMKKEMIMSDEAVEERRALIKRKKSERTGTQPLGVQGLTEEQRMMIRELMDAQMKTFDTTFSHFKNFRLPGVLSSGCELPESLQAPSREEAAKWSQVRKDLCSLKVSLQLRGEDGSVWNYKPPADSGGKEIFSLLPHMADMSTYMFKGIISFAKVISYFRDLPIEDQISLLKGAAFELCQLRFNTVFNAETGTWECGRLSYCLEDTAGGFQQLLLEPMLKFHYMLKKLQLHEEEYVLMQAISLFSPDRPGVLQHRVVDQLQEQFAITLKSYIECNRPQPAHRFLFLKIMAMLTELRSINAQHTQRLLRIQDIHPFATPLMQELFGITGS
smiles,measurement,setting,value
ClC1C(Cl)C(Cl)C(Cl)C(Cl)C1Cl (centres undefined),Potency,[1],"active: 49, 31.3, 12.2, 27.3 µM [separate samples]"
same,Potency,[2],active: 49.5 µM and inactive (4×) [separate samples]
same,Potency,[3],"active: 17.4, 24.8, 6.8, 7.7, 27.3, 48.6 µM and inactive (2×) [separate samples]"
same,Potency,[4],"active: 102, 91.6, 79.4, 89.8 (2×), 113 µM and inactive (2×) [separate samples]"
same,"activity change, positive = activation",[5],"inactive: -17.4, -11.8, -16.9, 4.05, 3.86, 9.94, -15.8, -40.1% [separate samples]"
same,Potency,[6],"active: 49.4, 35.4, 48.6, 34.7, 38.9 µM and inactive (2×) [separate samples]"
same,max response,[7],"inactive: -28.1, -19.9, 2.09, 5.72, -8.11, -23.8% [separate samples]"
same,Potency,[8],"active: 55.4, 54.5, 34.7, 38.9 µM and inactive (3×) [separate samples]"
same,Potency,[9],"active: 49.4, 39.7, 48.6, 34.7, 38.9 µM and inactive (3×) [separate samples]"
same,Potency,[10],inactive (5×) and active: 43.6 µM [separate samples]
same,Potency,[11],"inactive (3×) and active: 9.89, 2.15, 3.06, 10.9 µM [separate samples]"
same,Potency,[12],"active: 62.4, 54, 27.1, 61.1 µM (2×) and inactive (2×) [separate samples]"
same,Potency,[13],"inactive (3×) and active: 6.46, 3.53, 2.83, 3.56 µM (2×) [separate samples]"
same,Potency,[14],"active: 7.24, 1.77, 1.26, 7.96 µM and inactive [separate samples]"
